Inconclusive results, whose numbers are uncertain, are shown with a selection of clear calls. No potency is given beside an inconclusive call; the fits are too rough. Calls of active or inactive are those of the source. Calls follow the shape of the dose curve; as a rule, active = well fitted inhibition curve with a large enough effect; inconclusive = small, poorly fitted or top-dose-only effect, or effect the other way; inactive = no such curve, though single readings can be large or run the other way.
Test: DHR3 selectivity assay for inhibitors of ROR gamma transcriptional activity
Details: Drosophila S2 Gal4-DHR3 UAS-luciferase, 20 h; series mostly up to 92.2 µM
Outline: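 Drosophila Schneider cells stably expressing a Gal4-DHR3 transactivation domain fusion (metallothionein promoter) and a UAS-driven Photinus luciferase reporter. Compounds were preincubated 1 h, then expression was induced with 700 uM copper sulfate for 20 h at ambient temperature. Luminescence was the read-out.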
Potency is read from the fitted curve at half-maximal effect; tags tell the direction and shape of the fitted curve.

| SMILES | Potency |
| --- | --- |
| COc1cccc(O)c1C(CC(=O)N1CCCC(C)C1)c1ccc2c(c1)OCO2 (centres undefined) | inconclusive [activator, partial curve] |
| CCN(CC)C(=O)CC(c1ccc2c(c1)OCO2)c1c(O)cc(OC)cc1OC (centres undefined) | inconclusive [inhibitor, single point] |
| COc1cc(C)nc(-n2nc(C)cc2OC)n1 | inconclusive [inhibitor, full curve, poor fit] |
| CC(C)(C)c1ccc(S(=O)(=O)Nc2ccc(C(O)(C(F)(F)F)C(F)(F)F)cc2)cc1 | inconclusive [inhibitor, full curve, poor fit] |
| COc1ccc(C(=O)/C=C/c2ccc(OC)cc2OC)c(O)c1 | active: 0.645 µM |
| COc1cc(O)c(C(CC(=O)N2CCc3ccccc3C2)c2ccc3c(c2)OCO3)c(OC)c1 (centres undefined) | inconclusive [activator, partial curve, poor fit] |
| COc1cc(O)c(C(CC(=O)N2CCCC(C)C2)c2ccc3ccccc3c2)c(OC)c1 (centres undefined) | inactive |
| COc1cc(O)c(C(CC(=O)N2C[C@H](C)C[C@H](C)C2)c2ccc3c(c2)OCO3)c(OC)c1 (some centres undefined) | inconclusive [activator, partial curve] |
| COc1cc(O)c(C(CC(=O)N2CCC(Cc3ccccc3)CC2)c2ccc3c(c2)OCO3)c(OC)c1 (centres undefined) | inconclusive [inhibitor, full curve, poor fit] |
| Cc1ccc(Sc2cncc3sc(C(N)=O)cc23)cc1 | active: 0.102 µM |
| CC1CCCN(C(=O)CC(c2ccc3c(c2)OCO3)c2cc(-c3ccccc3)ccc2O)C1 (centres undefined) | inactive |
| O=C(CCCN1C(=O)/C(=C/c2ccccc2Cl)SC1=S)Nc1cccnc1 | active: 0.645 µM |
| COc1cc(O)c(C(CC(=O)N2CCCC(C)C2)c2cccs2)c(OC)c1 (centres undefined) | inconclusive [inhibitor, full curve, poor fit] |
| CCC1CCCN(C(=O)CC(c2ccc3c(c2)OCO3)c2c(O)cc(OC)cc2OC)C1 (centres undefined) | inactive |
| COc1cc(O)c(C(CC(=O)N2CCCC(C)C2)c2ccccc2OC)c(OC)c1 (centres undefined) | inactive |
| COc1ccccc1CNC(=O)[C@@H](NC(=O)C1CCN(C(=O)[C@@H]2CCCN2C(=O)OC(C)(C)C)CC1)C(C)C | inactive |
| COc1cc(O)c(C(CC(=O)N2CC(C)OC(C)C2)c2ccc3c(c2)OCO3)c(OC)c1 (centres undefined) | inconclusive [inhibitor, full curve] |
| O=C(/C=C/c1ccc(S(=O)(=O)N2CCOCC2)cc1)NC(=S)Nc1ccc(N2CCOCC2)cc1 | inconclusive [activator, full curve] |
| COc1cc(O)c(C(CC(=O)N2CCCCCC2)c2ccc3c(c2)OCO3)c(OC)c1 (centres undefined) | inconclusive [inhibitor, full curve, poor fit] |
| COc1cc(O)c(C(CC(=O)N2CCC(C)CC2)c2ccc(OC)c(OC)c2)c(OC)c1 (centres undefined) | inactive |
| COc1cc(O)c(C(CC(=O)N2CCCC(CN3CCCCC3)C2)c2ccc3c(c2)OCO3)c(OC)c1 (centres undefined) | inactive |
| COc1cc(O)c(C(CC(=O)N2CC(C)CC(C)C2)c2ccc(C)cc2)c(OC)c1 (centres undefined) | inconclusive [activator, full curve, poor fit] |
| COc1cc(O)c(C(CC(=O)N2CCOCC2)c2ccc(C)cc2)c(OC)c1 (centres undefined) | inactive |
| COc1cc(O)c(C(CC(=O)N2CCc3ccccc32)c2ccc3c(c2)OCO3)c(OC)c1 (centres undefined) | inactive |
| CC(C)(C)c1ccc([S+](=O)([O-])Nc2ccccc2C(O)(C(F)(F)F)C(F)(F)F)cc1 | inconclusive [inhibitor, full curve, poor fit] |
| CC1CCCN(C(=O)CC(c2ccccc2)c2ccc(O)cc2)C1 (centres undefined) | inconclusive [activator, single point] |
| COc1cc(O)c(C(CC(=O)N(Cc2ccccc2)Cc2ccccc2)c2ccc3c(c2)OCO3)c(OC)c1 (centres undefined) | inconclusive [inhibitor, partial curve, poor fit] |
| COc1cc(OC)c(C(CC(=O)N2CC(C)CC(C)C2)c2ccc3c(c2)OCO3)c(OCC(N)=O)c1 (centres undefined) | inactive |
| COc1cc(O)c(C(CC(=O)N2CCCC(CO)C2)c2ccc3c(c2)OCO3)c(OC)c1 (centres undefined) | inconclusive [activator, full curve, poor fit] |

Source: PubChem BioAssay AID489038 (National Center for Advancing Translational Sciences (NCATS), 2010)
